These results are taken from the RNAGym collection of RNA variant scans (doi:10.1101/gad.245936.114).

The labels stand for the following.
B1: tRNA (parent)
chain: CUCUCGGUAGCCAAGUUGGUUUAAGGCGCAAGACUUUAAUUUAUCACUACGAAAUCUUGAGAUCGGGCGUUCGACUCGCCCCCGGGAGAUUUUUUCCUCGAGCAA

Variants at the background level are over-represented here. Some results are limits rather than exact numbers.

The variants in this data set derive from B1. As to the kind of experiment: nonsense suppression (GFP-seq) (ratio to wild type); higher = more function; SUP4oc tRNA, yeast GFP reporter sort-seq. In short, it runs like this:
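Nonsense suppression (GFPSEQ) is the median GFP/RFP ratio of each sorting bin, weighted by the variant's estimated share of cells in that bin and expressed relative to the unmutated parent tRNA. Yeast strains carried genome-integrated variants of an ochre-suppressor tRNA from a library with ~3% random mutations, plus a galactose-driven GFP ochre reporter and RFP, and were grown in raffinose/galactose medium containing 80 mg/L adenine. Cells were sorted into GFP/RFP bins, each bin was Illumina-sequenced (phred ≥30), and variants were kept only with ≥100 reads and ≥30 cells.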
On to C11A C68A C81U, for which the nonsense suppression was not above 0.026.

As to C5U G7A G61C, the nonsense suppression was not above 0.026.

On to A13C G26U C29A, for which the nonsense suppression is not above 0.026.

Turning to A13C A33U C82G, the nonsense suppression was not above 0.026.

For the variant C1U U4C G61A, the nonsense suppression is not above 0.026.

In the case of A14G G61C C79U, the nonsense suppression was not above 0.026.

Turning to C3A U4G C75U G86A, the nonsense suppression is not above 0.026.

On to A24G U35G A87G, for which the nonsense suppression was not above 0.026.

Turning to U8C A31U A87G, the nonsense suppression is not above 0.026.

With U20A A31U, the nonsense suppression is not above 0.026.

On to G18A G32A, for which the nonsense suppression is not above 0.026.

Regarding A31G G69A, the nonsense suppression was not above 0.026.

With U21G U76C, the nonsense suppression was 0.861.

As for G88C A89C, the nonsense suppression was not above 0.026.

Regarding C12U A33U, the nonsense suppression was not above 0.026.

As to U8C C29A U58G G73U, the nonsense suppression was not above 0.026.

As to C56G G66A, the nonsense suppression was not above 0.026.

Regarding U57C G59C, the nonsense suppression is not above 0.026.

On to G66C C79G, for which the nonsense suppression was not above 0.026.

For the variant U35C C56A, the nonsense suppression was not above 0.026.

Take C11U C12A G88A: the nonsense suppression was not above 0.026.

As to U16G G25C, the nonsense suppression stood at 0.2.

Consider U2C A54U C56U C83U, for which the nonsense suppression is not above 0.026.

As to G65C U76G, the nonsense suppression is not above 0.026.

Regarding U2G C77U, the nonsense suppression is not above 0.026.

Turning to C5A C11A, the nonsense suppression is not above 0.026.

In the case of A14U U35C G61A A74C, the nonsense suppression is not above 0.026.

For C1A A13U G25C, the nonsense suppression was not above 0.026.

Take G10A A14C A89C: the nonsense suppression was not above 0.026.

For the variant C56G U58C C80U, the nonsense suppression was not above 0.026.

As for G15U A54C C56A G66A G84A, the nonsense suppression is not above 0.026.

U2G U4G C79A G85C: the nonsense suppression was not above 0.026.

As to A60C G65A, the nonsense suppression is not above 0.026.

For C3U A13U U20G U63C C68A U70G, the nonsense suppression is not above 0.026.

Consider C5U G66C G69C, for which the nonsense suppression was not above 0.026.

Regarding U22C G26U G67U G73U, the nonsense suppression is not above 0.026.

U20A U70C: the nonsense suppression was not above 0.026.

Regarding A54G U58A C79A, the nonsense suppression was not above 0.026.

For the variant A54U A62G A74U, the nonsense suppression was not above 0.026.

Regarding U17C G28U G67C, the nonsense suppression was not above 0.026.

Take G7U A74G U76G: the nonsense suppression was not above 0.026.

Take C1U U2C A54C G61U U76A: the nonsense suppression was not above 0.026.

With A14U G19C C29G, the nonsense suppression was not above 0.026.

Turning to A9G A30G G61C C64A G67A, the nonsense suppression is not above 0.026.

As for U4C G7C A33G, the nonsense suppression is not above 0.026.

C3U A13G G26C U63A G65U: the nonsense suppression is not above 0.026.

Take A13U A31G: the nonsense suppression was found to be 1.22.

For the variant U58C U76A, the nonsense suppression is not above 0.026.

As to G61A A62G A74C, the nonsense suppression is not above 0.026.

G7A A74U A87G: the nonsense suppression is not above 0.026.

For U55G U63C, the nonsense suppression was not above 0.026.

For the variant G15A G69U, the nonsense suppression is not above 0.026.

For the variant U20C A31G, the nonsense suppression was determined as 0.0336.

Turning to U21A U22A A23C G28U A60G G88U, the nonsense suppression is not above 0.026.

Consider U63G A74C C75A, for which the nonsense suppression is not above 0.026.

For C12U G84U, the nonsense suppression was 0.117.

C5A A13G A31U G67A: the nonsense suppression is not above 0.026.

C11A U22A A23C: the nonsense suppression was not above 0.026.

As to U16A C34A A60C U63G, the nonsense suppression is not above 0.026.

In the case of C11U G26C C27A, the nonsense suppression is not above 0.026.

On to U57C C75U, for which the nonsense suppression was not above 0.026.

With G26C C72G, the nonsense suppression is not above 0.026.

On to C79A, for which the nonsense suppression is not above 0.026.

Take A62C U70C: the nonsense suppression is not above 0.026.

As for G6A A23C U57A, the nonsense suppression is not above 0.026.

Take C5A U8A: the nonsense suppression is not above 0.026.

Regarding U16G G18A A30G U76C, the nonsense suppression was not above 0.026.

For A9C U17G, the nonsense suppression is 0.595.

As for C11U A33C, the nonsense suppression is not above 0.026.

As for A23U A74C C82U G84A, the nonsense suppression is not above 0.026.

Consider A13U U70A C81U, for which the nonsense suppression was not above 0.026.

With A24C A60C U70C U76C, the nonsense suppression is not above 0.026.

U4C G18A C34A C56A U57A C81U: the nonsense suppression is not above 0.026.

Regarding U17A A89G, the nonsense suppression was not above 0.026.

On to G7A U55G A60C C64U G78A, for which the nonsense suppression was not above 0.026.

As to U76G C80U, the nonsense suppression is not above 0.026.

For A24U C29U U58A A62G, the nonsense suppression is not above 0.026.

Turning to U2A G6C C83U, the nonsense suppression is not above 0.026.

Regarding C1A A62G A74C G84A, the nonsense suppression was not above 0.026.

For A54G C64G C68U, the nonsense suppression was not above 0.026.

As to C11G G26C C34U, the nonsense suppression was not above 0.026.

Regarding U2G A33U U55G G73A, the nonsense suppression is not above 0.026.

On to U16A G59U C72G, for which the nonsense suppression was not above 0.026.

With C3U G26C G28A, the nonsense suppression is not above 0.026.

As for C3U C34U C77G, the nonsense suppression is not above 0.026.

As for U70A C75G, the nonsense suppression is not above 0.026.

Turning to U76G C82A A87C, the nonsense suppression is not above 0.026.

On to U63C A74C, for which the nonsense suppression is not above 0.026.

For C1G A23U U71C U76G, the nonsense suppression was not above 0.026.

Consider A13C A33U, for which the nonsense suppression is 0.0508.

For the variant A9U G67U, the nonsense suppression is not above 0.026.

Regarding G7U A9C U63G, the nonsense suppression is not above 0.026.

With U17C G18U C68U, the nonsense suppression was not above 0.026.

Consider A13U A14G G65C G67A U70A, for which the nonsense suppression is not above 0.026.

Regarding C29U A30U, the nonsense suppression came out at 0.124.

In the case of U55G C77G A87U, the nonsense suppression is not above 0.026.

As for A14U G25U U57A U70C C79G, the nonsense suppression is not above 0.026.

For G10C G32A, the nonsense suppression was not above 0.026.

In the case of G10U U20G U57C, the nonsense suppression is not above 0.026.

Take C3U A14G A24G: the nonsense suppression is not above 0.026.

With U17C U22C U57C A60G U76C C82U A87U, the nonsense suppression is not above 0.026.

U8A G78U: the nonsense suppression was not above 0.026.

Regarding A54G G67C, the nonsense suppression was not above 0.026.

As for U20G U55C C56G U63A G66A, the nonsense suppression is not above 0.026.

G10C A87C: the nonsense suppression is not above 0.026.

In the case of U21G G32U A89C, the nonsense suppression is not above 0.026.

For the variant A23U C64A G65C, the nonsense suppression was not above 0.026.

As for G28A U57G C79U, the nonsense suppression was not above 0.026.

As to A13U G86C, the nonsense suppression was not above 0.026.

For the variant U8C C12G A74U C77A, the nonsense suppression was not above 0.026.

Turning to C12U A24U C83G G88A, the nonsense suppression was not above 0.026.

Take U21C A23G: the nonsense suppression was not above 0.026.

Turning to C1A U20G A62U U71G, the nonsense suppression is not above 0.026.

As to C3U G67U, the nonsense suppression was not above 0.026.

G7U C12U G65C: the nonsense suppression was not above 0.026.

With A14G A24G U70A, the nonsense suppression was not above 0.026.

As to A9C G10A U20A U63G, the nonsense suppression was not above 0.026.

For A54C C80A, the nonsense suppression was not above 0.026.

Regarding C34G U63C, the nonsense suppression is not above 0.026.

In the case of U57C A60G C72A, the nonsense suppression was not above 0.026.

With C11A A24G C29G, the nonsense suppression was not above 0.026.

Consider G26U A31C A54C C77G G78C, for which the nonsense suppression was not above 0.026.

Take C29G U71C C79G: the nonsense suppression was not above 0.026.

In the case of G19C A87U, the nonsense suppression is not above 0.026.

Take G10C C34U C56U A74C C77G: the nonsense suppression was not above 0.026.

For C5G G10C A33U, the nonsense suppression was not above 0.026.

Turning to G6A C79U G88C, the nonsense suppression was not above 0.026.

As to U4C U55A G67A C79G C83G, the nonsense suppression is not above 0.026.

With A9G G84A, the nonsense suppression amounted to 0.0699.

With G7C C29A G61U G65C G84A, the nonsense suppression was not above 0.026.

As to C5U U16G G66C, the nonsense suppression is not above 0.026.

Regarding C12A C27G, the nonsense suppression was not above 0.026.

Regarding C5G G15A U16A U17C A23G G61U A87U, the nonsense suppression was not above 0.026.

On to G19U A87C, for which the nonsense suppression was not above 0.026.

Consider G25A C77G, for which the nonsense suppression is not above 0.026.

G19U U20A U35A G61C: the nonsense suppression is not above 0.026.

With U8C C56G, the nonsense suppression was not above 0.026.

As to U22C A23C G86A, the nonsense suppression is not above 0.026.

In the case of U17G G18C A24G G28A U57G C83U, the nonsense suppression is not above 0.026.

For C3G A31C G59A, the nonsense suppression is not above 0.026.

As for C12A U17C A23G, the nonsense suppression is not above 0.026.

G18C G59C: the nonsense suppression was not above 0.026.

Turning to U35G C56G, the nonsense suppression was not above 0.026.

C3U C12A A13G G66C C79A: the nonsense suppression was not above 0.026.

G32A U35A U57A: the nonsense suppression was not above 0.026.

Consider U58A G78C, for which the nonsense suppression was not above 0.026.

Consider C56A U63G, for which the nonsense suppression was not above 0.026.

For the variant G10U G15A C56G C72G C79G G85U, the nonsense suppression was not above 0.026.

With C3U G19U A33G, the nonsense suppression is not above 0.026.

On to A9U A13C G19U G85A, for which the nonsense suppression is not above 0.026.

On to A30C C83A, for which the nonsense suppression was not above 0.026.

Regarding A60C C64G U76C, the nonsense suppression was not above 0.026.

Turning to C29G C34G G69C, the nonsense suppression is not above 0.026.

For U2A U21A C34U G86A, the nonsense suppression was not above 0.026.

Consider G15U U55A G61U A62C A74C, for which the nonsense suppression is not above 0.026.

In the case of G18U U20C U35A A89C, the nonsense suppression is not above 0.026.

Regarding G28A U63C G85U, the nonsense suppression was determined as 0.0331.

With G15A C34U G65C U70A C72G, the nonsense suppression was not above 0.026.

As for C3A C5G G15C A24U G66C G78C, the nonsense suppression was not above 0.026.

For C11G A54U C80G, the nonsense suppression was not above 0.026.

For G73A G85U, the nonsense suppression amounted to 0.285.

With G15C G25A A31C, the nonsense suppression is not above 0.026.

On to C5G A60C C64A, for which the nonsense suppression was not above 0.026.

As for C1A G88A, the nonsense suppression is not above 0.026.

As for G26C G73U, the nonsense suppression was not above 0.026.

Regarding U8G U58G, the nonsense suppression was not above 0.026.

Turning to C5G C64G A74G C75A, the nonsense suppression was not above 0.026.
